Results reported in paper PMC3217859.
No constants are given. Whether binding was seen depends on the method and setting. Binding seen in cells or lysates may run through a third protein. Some binding calls cover weakened binding; strength is not graded here. For some of these results: Where a sequence is shown, tags or fusion partners need not be part of it. Blank lines part the entries; values can stand above or below the binder they belong to.

What was measured:
Test in all cases: co-IP; anti-HA immunoprecipitates (12CA5 with protein A-Sepharose, or F7 anti-HA-agarose when probing for Mst3 or Mst4; 1.5 h, 4°C) of lysates (1% Nonidet P-40, 0.135 M NaCl, 10% glycerol, 20 mM Tris pH 8.0) of HEK293 cells transfected with HA-striatins; endogenous partners by immunoblot, partner/HA-striatin ratio by chemilumimager against wild type; 50 mM NaF and 100 nM okadaic acid in the lysis buffer in the phosphorylation experiments
[1] = target: T1, HA-tagged Δ(53-66) striatin (human) (UniProt O43815)
T1 sequence: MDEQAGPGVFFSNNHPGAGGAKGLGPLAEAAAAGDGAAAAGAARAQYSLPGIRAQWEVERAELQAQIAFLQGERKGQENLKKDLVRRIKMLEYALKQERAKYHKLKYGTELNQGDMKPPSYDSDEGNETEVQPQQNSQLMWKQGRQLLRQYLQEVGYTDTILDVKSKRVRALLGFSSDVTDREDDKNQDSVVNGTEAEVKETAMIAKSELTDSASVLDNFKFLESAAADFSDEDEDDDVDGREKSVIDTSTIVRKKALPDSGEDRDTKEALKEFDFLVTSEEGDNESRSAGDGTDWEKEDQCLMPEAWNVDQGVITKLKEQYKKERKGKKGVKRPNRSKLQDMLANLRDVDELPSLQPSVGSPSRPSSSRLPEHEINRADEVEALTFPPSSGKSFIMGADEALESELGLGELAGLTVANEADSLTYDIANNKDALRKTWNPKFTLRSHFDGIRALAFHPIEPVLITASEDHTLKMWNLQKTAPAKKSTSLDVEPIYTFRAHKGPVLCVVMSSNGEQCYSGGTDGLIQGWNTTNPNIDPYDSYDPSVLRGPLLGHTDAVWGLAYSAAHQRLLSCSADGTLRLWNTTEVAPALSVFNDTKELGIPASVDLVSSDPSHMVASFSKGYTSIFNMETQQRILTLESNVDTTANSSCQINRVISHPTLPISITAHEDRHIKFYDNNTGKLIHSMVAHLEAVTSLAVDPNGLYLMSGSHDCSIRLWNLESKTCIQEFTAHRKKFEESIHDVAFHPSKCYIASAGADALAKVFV

[2] = target: T2, HA-tagged L84A/L94A/L105A striatin (human) (UniProt O43815)
T2 sequence: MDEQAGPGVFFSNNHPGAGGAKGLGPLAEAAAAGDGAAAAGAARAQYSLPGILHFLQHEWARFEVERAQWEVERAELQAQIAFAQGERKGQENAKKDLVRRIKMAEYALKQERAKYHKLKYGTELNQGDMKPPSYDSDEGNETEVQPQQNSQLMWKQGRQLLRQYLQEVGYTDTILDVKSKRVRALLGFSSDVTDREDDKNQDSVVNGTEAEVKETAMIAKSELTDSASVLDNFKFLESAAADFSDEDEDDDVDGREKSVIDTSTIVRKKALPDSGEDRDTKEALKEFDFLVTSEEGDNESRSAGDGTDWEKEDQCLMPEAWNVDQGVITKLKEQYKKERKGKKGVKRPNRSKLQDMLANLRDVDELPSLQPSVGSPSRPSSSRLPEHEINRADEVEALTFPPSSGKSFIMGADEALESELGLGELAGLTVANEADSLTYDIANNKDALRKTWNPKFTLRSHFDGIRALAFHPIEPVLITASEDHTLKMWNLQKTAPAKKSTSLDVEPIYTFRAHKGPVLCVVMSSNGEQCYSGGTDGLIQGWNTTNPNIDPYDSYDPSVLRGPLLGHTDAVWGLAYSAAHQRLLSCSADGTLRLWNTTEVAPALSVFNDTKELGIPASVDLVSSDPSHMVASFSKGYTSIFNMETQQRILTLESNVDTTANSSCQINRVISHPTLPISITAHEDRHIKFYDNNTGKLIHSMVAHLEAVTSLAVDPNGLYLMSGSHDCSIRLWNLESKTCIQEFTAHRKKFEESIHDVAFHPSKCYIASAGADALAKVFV

[3] = target: HA-tagged Δ(148-166) striatin (human) (UniProt O43815)
[4] = target: HA-tagged striatin with deletion of residues 191-269 (human) (UniProt O43815)

- binding [1]: no binding
- binding [2]: binds
- binding [3]: binds
B1: S/G2 nuclear autoantigen (SG2NA) (protein, UniProt Q13033 1-797)
chain: MDELAGGGGGGPGMAAPPRQQQGPGGNLGLSPGGNGAAGGGGPPASEGAGPAAGPELSRPQQYTIPGILHYIQHEWARFEMERAHWEVERAELQARIAFLQGERKGQENLKKDLVRRIKMLEYALKQERAKYHKLKYGTELNQGDLKMPTFESEETKDTEAPTAPQNSQLTWKQGRQLLRQYLQEVGYTDTILDVRSQRVRSLLGLSNSEPNGSVETKNLEQILNGGESPKQKGQEIKRSSGDVLETFNFLENADDSDEDEENDMIEGIPEGKDKHRMNKHKIGNEGLAADLTDDPDTEEALKEFDFLVTAEDGEGAGEARSSGDGTEWDKDDLSPTAEVWDVDQGLISKLKEQYKKERKGKKGVKRANRTKLYDMIADLGDDELPHIPSGIINQSRSASTRMTDHEGARAEEAEPITFPSGGGKSFIMGSDDVLLSVLGLGDLADLTVTNDADYSYDLPANKDAFRKTWNPKYTLRSHFDGVRALAFHPVEPVLVTASEDHTLKLWNLQKTVPAKKSASLDVEPIYTFRAHIGPVLSLAISSNGEQCFSGGIDATIQWWNMPSPSVDPYDTYEPNVLAGTLVGHTDAVWGLAYSGIKNQLLSCSADGTVRLWNPQEKLPCICTYNGDKKHGIPTSVDFIGCDPAHMVTSFNTGSAVIYDLETSQSLVILSSQVDSGLQSNNHINRVVSHPTLPVTITAHEDRHIKFFDNKTGKMIHSMVAHLDAVTSLAVDPNGIYLMSGSHDCSIRLWNLDSKTCVQEITAHRKKLDESIYDVAFHSSKAYIASAGADALAKVFV

- binding [1]: binds
- binding [2]: binds
- binding [3]: binds
- binding [4]: binds
B2: Mob3/phocein (protein, UniProt Q9Y3A3 1-225)
chain: MVMAEGTAVLRRNRPGTKAQDFYNWPDESFDEMDSTLAVQQYIQQNIRADCSNIDKILEPPEGQDEGVWKYEHLRQFCLELNGLAVKLQSECHPDTCTQMTATEQWIFLCAAHKTPKECPAIDYTRHTLDGAACLLNSNKYFPSRVSIKESSVAKLGSVCRRIYRIFSHAYFHHRQIFDEYENETFLCHRFTKFVMKYNLMSKDNLIVPILEEEVQNSVSGESEA
